# In PubChem BioAssay AID1508642 (National Center for Advancing Translational Sciences (NCATS), 2021):
# Out of some 43,000 compounds screened, about 200 (0.47%) were called active. About 12% were inconclusive and are not listed. Calls follow the shape of the dose curve; as a rule, active = well fitted cell-killing curve with a large enough effect; inconclusive = small, poorly fitted or top-dose-only effect, or effect the other way; inactive = flat fitted curve, though single readings scatter. This is one part of the list.
# Assay: Cell viability qHTS assay in S16 Pmp22-F2sN cells; also: nearly all actives have a fitted effect of over 65% in size
# Details: S16 Pmp22-F2sN Schwann cells viability, CellTiter-Glo, 24 h; series mostly up to 57.5 µM; activity change, negative = cytotoxicity: at the top concentration
# Procedure, shortened: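 S16 Pmp22-F2sN Schwann cells (500-1,000/well) in phenol-red-free DMEM with 10% FBS received 23 nL compound by pin tool for 24 h at 37 °C. Viability was then read as CellTiter-Glo luminescence after 15 min at room temperature.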
# % is scaled to controls: 0 for no effect and ±100 for the full control effect; potency is read from the fitted curve at half-maximal effect.
Compound,"activity change, negative = cytotoxicity",Potency
COc1ccccc1CNC(=O)C1CCN(S(=O)(=O)c2ccc3c(ccn3C)c2)CC1,inactive: -2.16%,
CCCCn1c(NCc2cc(Br)ccc2O)nc2ccccc21,inactive: 6.59%,
COc1ccc(NC(=O)C2(c3cccs3)CCOCC2)cc1Cl,inactive: -2.06%,
COC(=O)c1ccccc1NC(=O)c1cc2nc(-c3ccccc3)cc(-c3ccccc3)n2n1,inactive: 3.92%,
Cc1ccccc1C(=O)NCC(c1cccnc1)N1CCc2ccccc21 (stereo not given),inactive: -18.5%,
CC(C)CN(CCCNC(=O)CN1C(=O)COc2ccc(S(=O)(=O)N3CCCCCC3)cc21)CC(C)C,inactive: 2.21%,
O=C1CC(=O)Nc2cc(S(=O)(=O)N3CCOc4ccccc43)ccc2N1,inactive: 3.66%,
COc1cc(NC(=O)CSc2nc(C)c(C(=O)Nc3ccccc3)c(-c3ccc(OC)c(OC)c3)c2C#N)c(OC)cc1Cl,inactive: 5.45%,
COc1ccc(N2CC3=C(C2=O)C(c2ccc(Br)cc2)NC(=O)N3C)cc1 (stereo not given),inactive: 11.1%,
COc1cccc(N2CCN(C(=O)c3c(C)oc4ncnc(N5CCCCC5)c34)CC2)c1,inactive: 4.58%,
Cc1ccc(-c2nnc(Nc3ccc(O)cc3)c3ccccc23)cc1S(=O)(=O)NCc1nc2ccccc2[nH]1,inactive: 0.0906%,
Nc1c(C(=O)Nc2cccc(Cl)c2)sc2nc3c(cc12)CN(Cc1ccccc1)CC3,inactive: -6.3%,
CCOCCCn1c(=N)c(S(=O)(=O)c2ccc(C)cc2)cc2c(=O)n3ccccc3nc21,inactive: -30%,
CCOC(=O)c1c(NC(=O)C(C)Sc2cn(CCNC(=O)c3ccc(OC)c(OC)c3)c3ccccc23)sc2c1CCC2 (stereo not given),inactive: 1.87%,
CC(C)NC(=O)c1ccc(Cn2c(=O)c3cccn3c3cccnc32)cc1,inactive: -0.207%,
COc1ccc(CC(=O)NC2CC(=O)N(c3ccc4c(c3)OCCO4)C2)cc1 (stereo not given),inactive: 12.9%,
CCOC(=O)c1c(C)oc2nc(C)nc(NCc3ccc(C)cc3)c12,inactive: 9.24%,
CCN1CCN(Cc2c(O)ccc3c(=O)c(Oc4ccccc4Cl)c(C(F)(F)F)oc23)CC1,inactive: -3.5%,
COCCCNc1nc2c(-c3ccccc3)nnn2c2ccccc12,inactive: 18%,
O=C(CSc1nncn2c1cc1sccc12)Nc1ccccc1C(F)(F)F,inactive: 1.26%,

Compound,"activity change, negative = cytotoxicity",Potency
COc1ccc2nc3sc(C(=O)Nc4cc(Cl)c(OC)cc4OC)cc3cc2c1,inactive: 2.77%,
CC1=C(c2ccc(C)cc2)S(=O)(=O)N=C1N1CCN(c2ccccc2)CC1,inactive: -2.5%,
Cc1ccc2nc(-c3ccncc3)c(Nc3ccccc3C)n2c1,inactive: -0.651%,
Cc1ccc(CSC2=Nc3ccccc3C3=NC(CC(=O)NC4CCCCC4)C(=O)N23)c(C)c1 (stereo not given),inactive: 0.995%,
Cc1cc(C)cc(NC(=O)CN2C(=O)COc3ccc(S(=O)(=O)Nc4ccccc4)cc32)c1,inactive: -0.675%,
Cc1cn(C)c(CC(=O)NCc2ccc(F)cc2)c1C(=O)O,inactive: -1.35%,
COc1ccc2c(c1)c1c(c(=O)n(-c3cccc(C)c3)c(=O)n1CC(=O)Nc1c(C)cc(C)cc1C)n2C,inactive: 1.66%,
CCc1cccc(NC(=O)CNS(=O)(=O)c2ccc3nc(C)sc3c2)c1,inactive: -18.3%,
CCOC(=O)c1ccccc1NC(=O)CSc1nc2ncccc2o1,inactive: 8.39%,
CNS(=O)(=O)c1cn(CC(=O)N2CCN(c3ccc(OC)cc3)CC2)cc1S(=O)(=O)NC,inactive: 6.18%,
Cc1ccc(NS(=O)(=O)c2ccc3c4c(cccc24)C(=O)N3)c(C)c1,inactive: 2.7%,
CN(Cc1ccccc1)S(=O)(=O)c1ccc(F)c(C(=O)Nc2ccccc2C(F)(F)F)c1,inactive: -0.826%,
Cc1ccc(C(NC(=O)Cc2cccs2)C(=O)Nc2ccc(C(C)C)cc2)cc1 (stereo not given),inactive: -2.45%,
Cc1cccc(-c2nc3c4ccccc4nc(NCc4ccccc4Cl)n3n2)c1,inactive: -0.822%,
Cc1cc(Nc2cccc(C(F)(F)F)c2)ncn1,inactive: 0.458%,
Cc1c(C(=O)OC2CCCC2)[nH]c2c1C(=O)CC(c1ccc(C(C)(C)C)cc1)C2 (stereo not given),inactive: 13%,
CC(C)(C)C1CCc2c(sc(NC(=O)c3cccc(Cl)c3)c2C(N)=O)C1 (stereo not given),inactive: 1.81%,
COc1cccc(CNC(=O)CN2C(=O)CSc3ccc(S(=O)(=O)N(C)C)cc32)c1,inactive: 4.9%,
Cc1ccc(-c2nc3sccn3c2Nc2ccccc2C)cc1,inactive: -3.21%,
CC1CCN(C(=O)c2cnn(-c3ccc(Cl)cc3)c2C2CCN(C(=O)OC(C)(C)C)CC2)CC1,inactive: 7.97%,

Compound,"activity change, negative = cytotoxicity",Potency
Cc1cccc(N2CCN(C(=O)c3nn(C)c4c3CSc3ccccc3-4)CC2C)c1 (stereo not given),inactive: 18.7%,
CSCCC(NS(=O)(=O)c1ccc2c(c1)oc(=O)n2C)C(=O)N1CCN(c2cc(Cl)ccc2C)CC1 (stereo not given),inactive: -5.16%,
CCC(=O)Oc1c(Sc2ccc(Cl)cc2)c(C)nn1C(C)(C)C,inactive: -2.04%,
COc1ccc(NC(=O)CSc2oc(-c3ccc(C)cc3)nc2S(=O)(=O)c2ccc(C)cc2)c(OC)c1,inactive: 0.0348%,
CCN(CCCNC(=O)c1cc2cc3cc(OC)ccc3nc2s1)c1cccc(C)c1,inactive: 4.69%,
COc1ccc(-c2nn(C)c3sc(C(=O)N4CCN(c5ccccc5F)CC4)cc23)cc1OC,inactive: -0.852%,
Cc1ccccc1OCCSc1nc(C)c(Cc2ccccc2)c(=O)[nH]1,inactive: 14.3%,
Cc1cccc2c1-c1sc(C(=O)NCCc3ccc(Cl)cc3)cc1CO2,,active: 31.6 µM
Cc1ccc(-c2[nH]c3ccccc3c2SCCNC(=O)c2ccc(S(=O)(=O)N3CCOCC3)cc2)cc1,inactive: -8.14%,
COc1ccc(NC(=O)c2c(N)c(C(=O)c3ccc(C)cc3)n3ccccc23)cc1OC,inactive: 18.8%,
Cc1ccc(C)c(CN2C(=O)c3ccccc3Sc3ccc(C(=O)NCc4cccs4)cc32)c1,inactive: -8.66%,
O=C(CCc1ccccc1)NCCc1csc(-c2cccc(F)c2)n1,inactive: 5.42%,
Cc1ccc(C)c(NC(=O)C2CCN(c3nn4c(=O)cc(C)nc4s3)CC2)c1,inactive: 25.1%,
CCN1CCN(Cc2nc3cc(NC(=O)c4ccccc4[N+](=O)[O-])ccc3n2CC)CC1,inactive: -1.57%,
O=C(Nc1c(C(=O)N2CCC(N3CCCCC3)CC2)oc2ccccc12)c1c(F)cccc1F,inactive: -0.578%,
Cn1cc(S(=O)(=O)c2ccccc2)c(=O)c2cc(F)c(N3CCN(c4ccc(F)cc4)CC3)cc21,inactive: -1.08%,
Cc1ccc(-c2nnc(Nc3ccc(Cl)cc3)c3ccccc23)cc1S(=O)(=O)N1CCOCC1,inactive: -22.7%,
CN(C)S(=O)(=O)c1ccc2c(c1)N(CC(=O)N1CCCCC1)CCS2,inactive: 28.2%,
Cc1ccc(-n2ncc3c(Nc4cccc(C)c4)ncnc32)cc1,inactive: -1%,
COc1cccc(-n2c(SCC(=O)N3CCCCC3)nc3c([nH]c4ccccc43)c2=O)c1,inactive: 7.73%,
